# In PubChem BioAssay AID488969 (Vanderbilt High Throughput Screening Facility, 2010):
# Over roughly 110,000 compounds, “z-score” has its median near -0.1; the highest 2% begin near 2. This is one part of the list. The source made the active and inactive calls.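 How the source made its calls: active means z-score in the third read window above 3 or below -3; inactive means the rest.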
# Target: Metabotropic glutamate receptor 8 (Rattus norvegicus) (UniProt P70579)
# Test: rat mGluR8 modulators via GIRK flux, primary screen, cell-based, thallium flux, HTS (AID 488969)
# Settings: HEK293 rat mGluR8, GIRK (G protein-gated inwardly rectifying potassium channel) thallium flux, FluoZin2; at 10 µM; stronger effect = higher value; submaximal glutamate (EC20) added with thallium
# Sequence of UniProt P70579 (P70579 whole entry, looked up): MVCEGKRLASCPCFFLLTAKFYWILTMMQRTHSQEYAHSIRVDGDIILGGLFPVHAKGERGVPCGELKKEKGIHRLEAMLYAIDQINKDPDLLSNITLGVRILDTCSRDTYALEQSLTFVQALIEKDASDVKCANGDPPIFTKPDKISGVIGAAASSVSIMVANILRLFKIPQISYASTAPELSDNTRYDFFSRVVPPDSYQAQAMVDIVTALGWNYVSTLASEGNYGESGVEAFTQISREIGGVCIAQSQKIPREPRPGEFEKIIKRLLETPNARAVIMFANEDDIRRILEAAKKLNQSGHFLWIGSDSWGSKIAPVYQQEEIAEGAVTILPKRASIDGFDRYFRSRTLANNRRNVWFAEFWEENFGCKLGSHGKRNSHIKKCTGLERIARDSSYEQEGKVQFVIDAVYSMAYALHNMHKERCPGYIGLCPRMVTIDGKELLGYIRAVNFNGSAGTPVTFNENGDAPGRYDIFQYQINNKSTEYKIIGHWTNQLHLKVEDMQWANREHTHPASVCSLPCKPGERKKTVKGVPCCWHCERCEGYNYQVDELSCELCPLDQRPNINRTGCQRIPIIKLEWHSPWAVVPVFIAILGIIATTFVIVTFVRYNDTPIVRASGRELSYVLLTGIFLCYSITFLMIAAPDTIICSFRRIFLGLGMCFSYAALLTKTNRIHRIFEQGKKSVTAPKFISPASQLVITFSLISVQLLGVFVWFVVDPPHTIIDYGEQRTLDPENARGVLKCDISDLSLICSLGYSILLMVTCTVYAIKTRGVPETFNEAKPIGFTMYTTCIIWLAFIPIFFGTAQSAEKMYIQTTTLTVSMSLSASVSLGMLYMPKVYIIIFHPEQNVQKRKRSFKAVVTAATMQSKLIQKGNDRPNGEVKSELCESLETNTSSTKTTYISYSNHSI
row,SMILES,z-score
1,O=C(Oc1ccc(N(Cc2cccs2)C2=NS(=O)(=O)c3ccccc32)cc1)c1ccccc1Cl,-0.19
2,COc1ccc(S(=O)(=O)Cc2ccc(C(=O)NC(C)C)o2)cc1,0.419
3,CCOC(=O)CNC(=O)CSc1nnc(-c2cccc(OC)c2)n1CC,0.611
4,CC1Cc2ccccc2N1C(=O)CSc1nnc(Cc2ccccc2)n1CCc1ccccc1 (stereo not drawn),0.082
5,O=C(NCCCN1CCN(Cc2ccccc2Cl)CC1)Nc1ccccc1,-0.159
6,O=C(CCCOc1ccccc1)Nc1nccs1,-1.29
7,CCOC(=O)c1sc(NC(=O)c2ccccc2OC)nc1C,0.136
8,Cc1ccc(S(=O)(=O)NC(CN2CCOCC2)=NCCNS(=O)(=O)c2ccccc2)cc1,0.133
9,COc1cccc(C2C(C(=O)c3cc4ccccc4o3)=C(O)C(=O)N2CCN(C)C)c1OC (stereo not drawn),-0.0254
10,COCCCNC(=O)CN(Cc1ccc(Cl)cc1)S(C)(=O)=O,0.901
11,CCOC(=O)c1cnn(-c2cc(C(C)(C)C)nc3c(-c4ccccc4)c(C)nn23)c1N,-0.143
12,CCCCCn1nc(C)c2c(C)cc(=O)[nH]c21,-0.088
13,CCc1ccc(OCC(=O)Nc2ccc(-c3nc4ccccc4o3)c(O)c2)cc1,0.25
14,CC(OC(=O)CCCN1C(=O)c2ccccc2C1=O)C(=O)Nc1ncc(Cl)cc1Cl (stereo not drawn),2.08
15,CCOC(=O)c1ccc(COC(=O)c2nonc2N)cc1,-0.0847
16,O=C(CN1CCC(C(O)(c2ccccc2)c2ccccc2)CC1)Nc1cc(Cl)ccc1Cl,0.472
17,CCCOC(=O)NC(CC)COC(=O)Nc1cccc(C)c1C (stereo not drawn),active: 3.15
18,O=C(Nc1ccc(Br)cc1F)C1CCCO1 (stereo not drawn),-0.0425
19,CCCC12CN3CC(C)(CN(C1)C31CCCCC1)C2=O,-0.279
20,CCOc1ccc(NS(=O)(=O)c2ccc3[nH]cc(C(=O)NC(C)CC)c(=O)c3c2)cc1 (stereo not drawn),-0.000843
21,CC(C)NC(=O)c1ccc(CS(=O)(=O)c2ccc(Br)cc2)o1,-0.196
22,O=C(NC1(C(=O)NC2CCCCC2)CCCCC1)c1ccc2c(c1)OCO2,-0.289

row,SMILES,z-score
1,COc1cccc(-c2nn(C)c3sc(C(=O)NCc4ccc(C)cc4)cc23)c1,-0.18
2,CCN(CC)c1nc(N)nc(N(c2ccccc2)c2ccccc2)n1,-0.177
3,CSCCC(NS(=O)(=O)c1ccc2c(c1)oc(=O)n2C)C(=O)NC1CCCCC1 (stereo not drawn),-0.279
4,O=S(=O)(c1ccc2nc(Cc3cccc(C(F)(F)F)c3)[nH]c2c1)N1CCOCC1,-0.766
5,COc1ccc(/C=N/NC(=O)C2c3ccccc3-c3ccccc32)cc1,-0.068
6,COc1cc(N2CCCC2)c(OC)cc1/C=C1/NC(=S)NC1=O,-1.62
7,O=C(O)c1ccc2c(c1)C(c1ccccc1)OC2=O (stereo not drawn),-0.285
8,CCC(=NCc1ccco1)c1c(C(F)(F)F)[nH]n(-c2nc3ccccc3s2)c1=O,-0.0533
9,CCCC(=O)n1nc(-c2ccco2)nc1N,-0.0155
10,Cc1ccn2c(NC(=O)C(C)(C)Oc3ccc(Cl)cc3)c(-c3cccs3)nc2c1,-0.19
11,O=S(=O)(NCc1cccnc1)c1ccc(Cl)s1,0.136
12,C=CCSc1nnc(-c2cc3c(C(F)(F)F)nn(C)c3s2)n1C,0.12
13,C=C(C)C1CC=C(C)/C(=N/NC(=O)COc2ccccc2C)C1 (stereo not drawn),1
14,Cc1c(NC(=O)c2ccc3ncccc3c2)c(=O)n(-c2ccccc2)n1C,-0.371
15,CCOC(=O)C1=NNC2(c3ccc(Cl)cc3)C(=O)N(c3ccc(C)cc3)C(=O)C12 (stereo not drawn),-0.0691
16,Clc1ccccc1OCc1nn2c(-c3ccncc3)nnc2s1,-1.28
17,CCOC(=O)c1c(NC(=O)C2CCCN(S(=O)(=O)c3ccccc3)C2)sc2c1CCCC2 (stereo not drawn),0.269
18,Cc1ccc(S(=O)(=O)NCC(=O)OCC(=O)NC(=O)c2cccn2C)cc1,-1.09
19,COc1ccc(F)cc1S(=O)(=O)NCc1ccccc1,0.33
20,CC(=O)NC1(C(F)(F)F)C(=O)NC(C)=C1C#N (stereo not drawn),-1.29
21,CCc1ccc(N2CC34C=CC(O3)C(C(=O)OC(C)C)C4C2=O)cc1 (stereo not drawn),-0.444
22,Cc1nc(SCC(=O)N2CCCc3ccccc32)c2oc3ccccc3c2n1,1.25

row,SMILES,z-score
1,O=C1c2ccccc2CCC12N=NCC2c1ccc(Cl)cc1 (stereo not drawn),-0.484
2,Cc1ccc(NC(=O)COC(=O)c2sccc2C)cc1S(=O)(=O)N1CCOCC1,1.38
3,O=C(Nc1ccc(Cl)c(S(=O)(=O)Nc2ccccc2Cl)c1)c1cccs1,-0.616
4,CNS(=O)(=O)c1cc(OCC(N)=O)c(C)cc1Cl,0.25
5,NS(=O)(=O)c1ccc(CNC(=O)/C=C/c2ccccc2)cc1,-0.244
6,CC(=O)Nc1ccc(OC(=O)c2cccnc2)cc1,-0.52
7,O=C(O)COc1ccc(/C=N/n2c(COc3ccccc3)nc3ccccc3c2=O)cc1,-0.124
8,Cc1ccc(N2C(=O)c3n[nH]c(C)c3C2c2ccco2)cc1 (stereo not drawn),-0.43
9,Cc1cccc(-c2noc(CCC(=O)Nc3ccccc3)n2)c1,0.461
10,Cc1nc(C(=O)N(C)C)nn1-c1ccc(Cl)cc1Cl,0.0355
11,COc1cccc(NC(=O)c2ccco2)c1,-0.0273
12,N#Cc1cc(N)ccc1Sc1ccccc1,-0.207
13,CCc1ccc(OCc2nnc(SCCN3CCOCC3)n2CC)cc1,-0.0812
14,CN(c1ccccc1)S(=O)(=O)c1ccc(NC(=S)Nc2ccccc2)cc1,-0.168
15,CC1(C)Cc2c(C#N)c(N3CCCC3)nc(-c3ccco3)c2CO1,-0.157
16,O=C(NCCCNC(=O)c1cccs1)c1cccs1,0.0412
17,CC(C#CCN1CCCCC1)OCCOCc1ccccc1 (stereo not drawn),-0.301
18,CCCCN1C2=NCCCN2c2ccccc21,-0.957
19,CCCCOC(=O)C1CN(c2ccccc2)N=C1C(=O)OCC (stereo not drawn),-0.345
20,CCCN(CCC)C(=O)Cn1c2ccccc2c2nc(=O)cc(C)n21,-1.12
21,COc1ccccc1N1CCN(C(=O)CSc2nnc3c4ccccc4nc(Cc4ccccc4)n23)CC1,-0.296
22,CCOC(=O)C1=C(c2cccc(Oc3ccccc3)c2)NC(=S)NC1C (stereo not drawn),-0.382

row,SMILES,z-score
1,COc1cc(/C=N\NC(=O)c2ccc(Cn3nc([N+](=O)[O-])c(Cl)c3C)o2)ccc1O,-0.186
2,O=C(NCc1nc2ccccc2[nH]1)c1ccc(Cl)c(S(=O)(=O)N2CCCC2)c1,-0.297
3,CCOC(=O)CSc1nc2c(c(=O)n1-c1ccc(OC)cc1)SCC2,-0.486
4,COc1cc(-c2nc3n(n2)C(c2ccc(F)cc2)C2=C(CCCC2=O)N3)cc(OC)c1OC (stereo not drawn),0.741
5,O=S(=O)(c1ccc(C2CCCCC2)cc1)N1CCCC1,-0.277
6,COc1ccc(-n2c(=O)c3c4c(sc3n3c(C)nnc23)CC(C)CC4)cc1 (stereo not drawn),active: -3.05
7,O=C(CN(c1ccccc1)S(=O)(=O)c1ccccc1)Nc1ccccc1C(=O)NCc1ccco1,-0.212
8,c1ccc(CSc2n[nH]c(-c3ccco3)n2)cc1,0.877
9,COc1ccc(N2C(=O)CC(Nc3cccc(C(C)=O)c3)C2=O)cc1OC (stereo not drawn),-0.0978
10,O=C(CN(C(=O)c1ccc(Cl)cc1Cl)N1C(=O)C2C3C=CC(C3)C2C1=O)c1ccc(F)cc1 (stereo not drawn),-0.194
11,CCC(Cc1ccccc1)NC(=O)CN(C)S(=O)(=O)c1ccc2c(c1)c(=O)n(C)c(=O)n2C (stereo not drawn),-0.144
12,CSCCC1C(C#N)=C(N)Oc2n[nH]c(-c3cccs3)c21 (stereo not drawn),-0.543
13,COc1ccc2[nH]c(=O)c(CN(CC3CCCO3)C(=O)Nc3ccc(F)cc3)cc2c1 (stereo not drawn),-0.93
14,CNC(=O)COC(=O)[C@@H](Nc1ccc(S(=O)(=O)N2CCOCC2)cc1[N+](=O)[O-])C(C)C,-0.0667
15,Cc1cc(C)c(C(N)=O)c(Nc2cccc3ccccc23)n1,0.14
16,CN(C)c1oc(/C=C/c2ccccc2)nc1C#N,0.108
17,CC(=O)OC(C(=O)n1nc(C)cc1C)c1ccccc1 (stereo not drawn),0.38
18,c1ccc(CCNc2nnnn2-c2ccccc2)cc1,0.0093
19,Cc1ccc(S(=O)(=O)N2CCCC(c3nc(-c4ccc(C)o4)no3)C2)cc1 (stereo not drawn),-0.326
20,Cc1cc(C)c(C#N)c(SCC2COc3ccccc3O2)n1 (stereo not drawn),-0.341
21,CCOC(=O)c1c(-c2cccc([N+](=O)[O-])c2)csc1NC(=O)CCCOc1ccccc1OC,-0.344
22,Cc1nc(NCC2CCCO2)[nH]c(=O)c1CCC(C)C (stereo not drawn),0.502

row,SMILES,z-score
1,c1ccc(C(Cc2nc(-c3cccnc3)no2)c2ccccc2)cc1,0.232
2,O=c1c2ccccc2nnn1CSc1nnc(Nc2ccccc2)s1,-1.46
3,COC(=O)c1ccccc1S(=O)(=O)C(C)(C)C,-0.0721
4,Cc1cc(C)n(CC2CC(=O)N(c3ccc(F)c(Cl)c3)C2=O)n1 (stereo not drawn),0.64
5,O=C(c1ccco1)N1CCN=C1SCc1ccccc1Cl,-0.489
6,CCn1ncc(/C=N\NC(=O)c2cc(-c3ccc(C)cc3C)nc3ccccc23)c1C,-0.571
7,C=CCc1cc(Cl)ccc1OCCCNC(C)C,0.878
8,CCOc1ccc(S(=O)(=O)Nc2ccccc2C(=O)N/N=C/c2c(OC)ccc3ccccc23)cc1,-0.58
9,COc1ccc(-c2nc(CS(=O)CC(=O)NCCCN3CC(C)CC(C)C3)c(C)o2)cc1OC (stereo not drawn),0.621
10,COC(=O)c1c(NC(NC(=O)CC(C)C)C(Cl)(Cl)Cl)sc2c1CCC2 (stereo not drawn),0.202
11,CCOC(=O)C1CCCN(C(=O)c2ccc3c(c2)OCO3)C1 (stereo not drawn),-0.377
12,CN1CCN(C(=O)c2ccc(CSc3ccc(Cl)cc3)cc2)CC1,-0.427
13,COc1ccc(N2C(=O)C(CC(=O)Nc3ccc(F)cc3)N(CCc3cccs3)C2=O)cc1 (stereo not drawn),0.0987
14,N#Cc1c(NCCCO)nc(-c2ccccc2)c2c1CCCC2,-0.249
15,CC1CCCN(S(=O)(=O)c2ccc(NC(=O)Cn3nnc(-c4ccccc4F)n3)cc2)C1 (stereo not drawn),-0.447
16,COc1ccc(/C=C/C(=O)N2CCC(c3ccccc3)C2)cc1 (stereo not drawn),-0.418
17,CCOCCCNC(=O)c1[nH]c(C)c(C(C)=O)c1C,1.3
18,N#Cc1ccc(NC(=O)COC(=O)CCNS(=O)(=O)c2ccccc2)cc1,-0.505
19,O=[N+]([O-])c1ccc(N2CCN(S(=O)(=O)c3ccc(Cl)cc3)CC2)cc1NCc1cccnc1,-0.148
20,FC(F)(F)c1ccc(Cl)c(NC(=S)N/N=C/c2ccccc2C(F)(F)F)c1,1.14
